For 90 molecules, survival results are on record in PubChem BioAssay AID463173 (ICCB-Longwood Screening Facility, Harvard Medical School, 2010).

The structures appear in SMILES notation. Out of some 52,000 compounds screened, about 1,700 (3.3%) were called active. No stated cut-off is given here; in the data, active means survival mostly below about 52% (no sharp cut-off); inactive means mostly above about 56%. Some of the results follow.

The test system of the experiment is Wild type. The experiment is described as follows: growth inhibition of S. aureus wild type versus tarO mutant, primary screen, teichoic acid synthesis inhibitors, RN4220, OD600 (AID 463173). The following applies: S. aureus RN4220 wild type/DeltatarO growth, OD600, 18 h, active compounds read low, screened at 18.75 µg/mL (by protocol).
Consider `COc1ccccc1CNC(=O)CN1C(=O)CSc2ccc(S(=O)(=O)N(C)C)cc21`, for which the survival was inactive: 80%. The figure for `CCOC(=O)c1c(C)[nH]c(CCC(=O)NCCCN2CCN(c3cc(C)ccc3C)CC2)c1C` is inactive: 69%; for `O=C(CCNS(=O)(=O)c1ccc2c(c1)CCN2C(=O)C1CC1)N1CCN(c2ccccc2F)CC1` it is inactive: 82%. The figure for `CCOc1ccc(S(=O)(=O)N2CCN(c3ccc(Cl)c(Cl)c3)CC2)c2ccccc12` is inactive: 154%; for `CCn1nc(-c2ccccc2)c(-c2ccccc2)c(C(=O)Nc2nc(C)c(C(=O)N(C)C)s2)c1=O` it is inactive: 87%. With `CCCn1c(CCC(=O)Nc2cc(Cl)c(OC)cc2OC)nc2cccnc21`, the survival was inactive: 84%.

In the case of `C/C(=N/O)c1ccc2c(c1)OCCO2`, the survival was inactive: 101%. The same measure for `Cc1ccc(C)c(NC(=O)CSc2ncc3c(n2)-c2ccc(Cl)cc2N(C)S3(=O)=O)c1`: inactive: 88%; for `CC(=O)OC(COc1ccccc1)Cn1cnc2cc(C)c(C)cc21` (stereo not given): inactive: 125%. With `O=C(NC1CCCCC1)NC1CCN(S(=O)(=O)c2cccc(Cl)c2)CC1`, the survival is inactive: 125%. Turning to `COc1ccc(NC(=O)CC2C(=O)N(c3ccc(C)cc3)C(=O)N2C2CCCCC2)cc1` (stereo not given), the survival was inactive: 74%.

As to `O=C(CCSCc1ccccc1Cl)N1CCN(c2cccc(Cl)c2)CC1`, the survival was inactive: 75%.

As for `O=C(Cn1c(=O)n(-c2ccccc2Cl)c(=O)c2sc3ccccc3c21)N1CCCC1`, the survival was inactive: 84%. With `CCOc1ccc(CNC(=O)c2cnc3sc(N(CC)CC)nn3c2=O)cc1OC`, the survival is inactive: 73%. The same measure for `Cn1nccc1C(=O)Nc1cccnc1`: inactive: 104%; for `CCc1nc2cccnc2n1-c1ccc(CC(=O)Nc2ccc(C)cc2)cc1`: inactive: 74%; for `Cc1ccc(NC(=O)CSc2nc3nccnc3c(=O)n2CCc2c[nH]c3ccccc23)cc1`: inactive: 99%.

Regarding `Cc1cc(C)cc(NC(=O)CCc2nnc3n(CC(C)C)c(=O)c4ccccc4n23)c1`, the survival was inactive: 89%. The figure for `CC(C)N(Cc1ccccc1)C(=O)CN1C(=O)COc2ccc(S(=O)(=O)NC3CCCC3)cc21` is inactive: 92%; for `COc1ccc(-n2ccn(Cc3ccccc3Cl)c(=O)c2=O)cc1OC` it is inactive: 88%. `CC(C)NC(=O)C1CCCCC1C(=O)O` (stereo not given): the survival was inactive: 88%. The same measure for `CCN(C(=O)CSc1nc2ccccc2n1CC(=O)Nc1ccccc1C)c1ccccc1`: active: -6%; for `COc1cc(CNc2ccc3[nH]c(=O)[nH]c3c2)ccc1OCc1ccccc1F`: inactive: 104%; for `CCN=C1SC(CC(=O)Nc2ccccc2)C(=O)N1CC` (stereo not given): inactive: 112%. The same measure for `COc1ccc(Cl)cc1NC(=O)CSc1ccc(-c2sc(C)nc2C)nn1`: inactive: 79%; for `CC(C)Cc1nn2c(=O)cc(COC(=O)c3ccc4c(c3)OCO4)nc2s1`: inactive: 73%. Regarding `O=C(CNCCCN1CCOCC1)Nc1ccc(OC(F)(F)F)cc1`, the survival is inactive: 114%. On to `CCCNS(=O)(=O)c1ccc2[nH]c(=O)[nH]c2c1`, for which the survival is inactive: 112%. On to `COc1cc(OC)cc(C(=O)Nc2ncn[nH]2)c1`, for which the survival was inactive: 93%. Consider `CCN(CC)S(=O)(=O)c1ccc(NC(=O)CCc2c(C)nc3cc(-c4ccc(Cl)cc4)nn3c2C)cc1`, for which the survival is inactive: 105%. For the molecule `CN(C)c1ccc(C(CNS(=O)(=O)c2ccc(Br)cc2)N2CCCC2)cc1` (stereo not given), the survival is inactive: 68%. Turning to `CCOC(=O)c1cc2c(=O)n3ccccc3nc2n(CCCOC)c1=NC(=O)C(C)(C)Oc1ccc(Cl)cc1`, the survival was inactive: 70%. `Cc1cc2oc(C(=O)Nc3sc4c(c3C(=O)NCC3CCCO3)CCC4)cc(=O)c2cc1C` (stereo not given): the survival was inactive: 80%.

Take `O=C(Nc1ccc2oc(-c3cccnc3)nc2c1)c1ccc(-c2ccc(Cl)cc2)o1`: the survival is inactive: 85%. The figure for `COc1ccc(CNC(=O)CSc2nc3ccsc3c(=O)n2Cc2ccccc2Cl)cc1` is inactive: 60%; for `CCc1ccc(N2C(=O)CC(c3cc(OC)ccc3OC)C3=C2COC3=O)cc1` (stereo not given) it is inactive: 74%. With `CCOc1ccc(C2CC(=O)n3nc(-c4ccc(C)cc4)nc3S2)cc1` (stereo not given), the survival was inactive: 75%. The figure for `Cc1cccc(NC(=S)N(CCN(C)C)Cc2cc3cc4c(cc3[nH]c2=O)OCO4)c1` is inactive: 108%; for `O=C(CSc1nnc(-c2ccc(NS(=O)(=O)c3ccccc3)cc2)o1)NCC1CCCO1` (stereo not given) it is inactive: 95%. The same measure for `Cc1ccc(NC(=O)Cn2ncn3c(cc4ccccc43)c2=O)c(C)c1`: inactive: 75%. On to `COc1ccccc1CNC(=O)Cc1csc2nc(-c3ccc(Cl)cc3)cn12`, for which the survival was inactive: 73%. The same measure for `CCOc1cc(CNC(=O)c2ccc(C)c(NC(=O)c3nsc4ccccc34)c2)ccc1OC`: inactive: 75%; for `CC(NC(=O)c1ccc2c(c1)N(Cc1ccc(Cl)cc1)C(=O)c1ccccc1S2(=O)=O)c1ccccc1` (stereo not given): inactive: 99%. As to `CCOc1cc2sc(N3CCC(C(=O)Nc4ccc(C)cc4)CC3)nc2cc1Br`, the survival was inactive: 81%. The same measure for `O=C1CC(C(=O)NCc2ccco2)C2(CCCCC2)O1` (stereo not given): inactive: 106%. For `CCCCCn1c(=N)c(S(=O)(=O)c2ccccc2)cc2c(=O)n3ccccc3nc21`, the survival is inactive: 80%. The same measure for `CCOc1ccc(CCNC(=O)Cn2nc(CC)n3c(cc4sc(CC)cc43)c2=O)cc1OCC`: inactive: 87%. The same measure for `CCn1c(=O)c2cc(C(=O)NC3CCCCCC3)sc2c2ccccc21`: inactive: 70%; for `O=c1[nH]c(C2CCCNC2)nc2c1nnn2Cc1ccccc1` (stereo not given): inactive: 103%.

In the case of `CCc1ccc(CSc2nc(-c3ccc(OC)cc3)nc3c2Cc2c(CO)cnc(C)c2O3)cc1`, the survival is inactive: 85%. The figure for `O=S(=O)(NCc1ccccc1)c1ccc(-c2cnc(C3CC3)o2)cc1` is inactive: 83%; for `CCOC(=O)c1sc(NC(=O)c2nc3ncccn3n2)c(C(=O)OC)c1C` it is inactive: 64%; for `Cc1ccc(S(=O)(=O)N(C#N)c2nc(C)cc(C)n2)cc1` it is inactive: 103%.

For the molecule `O=C(CCNS(=O)(=O)c1ccc2c(c1)CCN2C(=O)C1CC1)N1CCN(c2ccc(F)cc2)CC1`, the survival is inactive: 127%. Turning to `COc1ccc(S(=O)(=O)c2cn(Cc3ccccc3)c3cc(N4CCCC4)c(F)cc3c2=O)cc1`, the survival is inactive: 90%. The figure for `COc1ccc(CCNC(=O)CCCCn2c(=O)c3ccccc3n(CC(=O)Nc3ccccc3C)c2=O)cc1OC` is inactive: 104%. The figure for `CCCOc1cccc(C(=O)Nc2ccc(-c3nc4ccccc4s3)c(Cl)c2)c1` is inactive: 65%.

Turning to `CCN1C(C(=O)c2ccccc2)=C(OC(=O)C(C)C)c2ccccc2S1(=O)=O`, the survival was inactive: 78%.

Turning to `COc1ccc(CCNC(=O)CCn2c(=O)c3ccccc3n(Cc3ccc(Cl)cc3)c2=O)cc1OC`, the survival was inactive: 150%.

Regarding `CCc1ccccc1NC(=O)Cn1c(=O)nc(-c2ccccc2)c2ccccc21`, the survival was inactive: 138%. Regarding `CCc1cc(CC)c(/C=N/NC(N)=O)c(CC)c1/C=N/NC(N)=O`, the survival is inactive: 119%. The figure for `C=C(C)CSc1nc2sc3c(c2c(=O)n1CCCC)CCCC3` is active: 0%; for `CCOC(=O)c1c(C)[nH]c(C)c1S(=O)(=O)N1CCC(C(=O)NCc2ccc(C)cc2)CC1` it is inactive: 71%; for `CCN1C(=O)CC(n2c(C)nc3ccccc32)C1=O` (stereo not given) it is inactive: 108%. The figure for `O=c1c2c([nH]n1-c1ccccc1)CCCC2` is inactive: 123%; for `COc1ccc(CNC(=O)C2CCN(c3nc4ccc(C)cc4[nH]3)CC2)cc1` it is inactive: 83%; for `CCn1c2c(c(=O)n3ncc(C(=O)Nc4cccc(Cl)c4C)c13)CN(Cc1ccc(OC)cc1)CC2` it is inactive: 74%.

Take `CCCC(O)c1nc2ccccc2n1CCCCOc1ccc(OC)cc1` (stereo not given): the survival was inactive: 74%. The figure for `O=C(O)Cn1ccnc1` is inactive: 104%; for `Cc1cc(C)cc(NC(=O)CSc2nncn3c2cc2occc23)c1` it is inactive: 66%. The same measure for `O=C(Nc1ccc(N2CCN(CCOc3ccc(Cl)cc3)CC2)c(C(=O)O)c1)c1ccc(F)cc1`: active: -3%; for `CCCn1c(SCC(O)c2cccc(OC)c2)nc2ccccc21` (stereo not given): inactive: 81%; for `CC1=CS(=O)(=O)CC1Sc1ncn[nH]1` (stereo not given): inactive: 46%. The figure for `COc1ccccc1C(=O)NC1(C(F)(F)F)C(=O)Nc2c1c(=O)[nH]c(=O)n2CCc1ccccc1` (stereo not given) is inactive: 81%; for `COC(=O)c1cn(CC(=O)Nc2ccc(F)cc2)c2ccccc12` it is inactive: 105%; for `O=C(Nc1cccc(Cl)c1)C1=CC(=O)N2CCN=C2S1` it is inactive: 88%. As for `COc1ccc(CNC(=O)c2nnn(CC(=O)Nc3cc(C)cc(C)c3)c2N)cc1`, the survival was inactive: 93%. With `CCc1nc2ccccc2n1CCCCOc1ccccc1C`, the survival is active: 24%.

As to `COC(=O)c1ccc(-n2c(/C=C\c3cccc(Br)c3)nc3ccccc3c2=O)cc1`, the survival is inactive: 84%. The figure for `Cc1ccc(S(=O)(=O)C(CNC(=O)C(=O)NCCc2ccccc2)c2ccco2)cc1` (stereo not given) is inactive: 76%.

Take `Cc1ccc(OCc2nc(-c3ccc(C(=O)N4CCN(c5ccc(Cl)cc5)CC4)cc3)oc2C)cc1`: the survival is inactive: 72%. The figure for `Cc1nn(Cc2ccc(Cl)cc2)c(C)c1NC(=O)c1noc2c1CCc1ccccc1-2` is inactive: 66%.

In the case of `CC(C)CCNC(=O)CSc1c2c(nc3ccc(Cl)cc13)CCCC2`, the survival was inactive: 79%. The same measure for `CC(C)Oc1ccc(CNC(=O)Cn2c(=O)oc3ccccc32)cc1`: inactive: 65%. The same measure for `Cc1cccc(-c2nc(SCC(=O)Nc3cccc(C(F)(F)F)c3)n3[nH]c(=O)cc3n2)c1`: active: -3%; for `CCOc1ccc(CNC(=O)C2CCCN(S(=O)(=O)c3ccc4c(c3)CCCC(=O)N4)C2)cc1` (stereo not given): inactive: 83%; for `CCOC(=O)C1=C(CN2CCN(CC)CC2)NC(=O)NC1c1ccc(Cl)cc1` (stereo not given): inactive: 75%. `Cc1cc(C(=O)NCc2ccccc2C)c2c(C)nn(-c3cccc(F)c3)c2n1`: the survival is inactive: 76%.

For the molecule `CCCn1c(=O)sc2cc(NC(=O)c3ccccc3OCC)ccc21`, the survival is inactive: 85%. On to `CCCCCCn1c(CNC(=O)c2ccccc2)nc2ccccc21`, for which the survival was inactive: 91%.
